{
  "source": "patent US8992915B2",
  "about": "“Combination of CD37 antibodies with ICE” (Boehringer Ingelheim International GmbH, priority 2012, dated 2015)",
  "tested_on": "human Burkitt lymphoma Ramos xenografts",
  "experiment": "Anti-tumor effect in subcutaneous Ramos xenograft tumor model in mice",
  "assay_type": "in vivo",
  "conditions": "Ramos tumor-bearing mice",
  "description": "Mice are 11 week-old female Crl:SHO-PrkdcscidHrhr purchased from Charles River. After arrival, mice are allowed to adjust to ambient conditions for at least 5 days before they are used for the experiments. They are housed in Makrolon type III cages in groups of 7 (8 for the controls) under standardized conditions at 21.5+/−1.5° C. temperature and 55+/−10% humidity. Standardized diet (PROVIMI KLIBA) and autoclaved tap water were provided ad libitum. Subcutaneously implanted (under isoflurane anesthesia) microchips are used to identify each mouse. […]\nTumor diameters are measured three times a week (Monday, Wednesday and Friday) with a caliper. The volume of each tumor [in mm^3] is calculated according to the formula “tumor volume=length*diameter^2*π/6.” To monitor side effects of treatment, mice are inspected daily for abnormalities and body weight is determined three times a week (Monday, Wednesday and Friday) Animals are sacrificed when the control tumors reached a size of approximately 1000 mm^3 on average. […]\nTGI (tumor growth inhibition) values are calculated as follows: TGI=100×{1−[(treatedfinal day−treated/(controlfinal day−controlday 1)]}\nThe statistical evaluation is performed for the parameters tumor volume and body weight at day 15. […] For descriptive considerations the number of observations, the median, the minimum and the maximum are calculated. […]",
  "data": [
    {"molecule": "A2: chimeric CD37 antibody comprising heavy chain SEQ ID NO: 5 and light chain SEQ ID NO: 6 (antibody) heavy: AVQLQQSGPELEKPGASVKISCKASGYSFTGYNMNWVKQNNGKSLEWIGNIDPYYGGTTYNRKFKGKATLTVDKSSSTAYMQLKSLTSEDSAVYYCARSVGPMDYWGQGTSVTVSSASTKGPSVFPLAPSSKSTSGGTAALGCLVKDYFPEPVTVSWNSGALTSGVHTFPAVLQSSGLYSLSSVVTVPSSSLGTQTYICNVNHKPSNTKVDKRV[human IgG1 Fc with changes not shown] light: DIQMTQSPASLSASVGETVTITCRTSENVYSYLAWYQQKQGKSPQLLVSFAKTLAEGVPSRFSGSGSGTQFSLKISSLQPEDSGSYFCQHHSDNPWTFGGGTELEIKRTVAAPSVFIFPPSDEQLKSGTASVVCLLNNFYPREAKVQWKVDNALQSGNSQESVTEQDSKDSTYSLSSTLTLSKADYEKHKVYACEVTHQGLSSPVTKSFNRGEC", "values": [
      {"measurement": "median TGI (tumor growth inhibition)", "setting": "day 15, two cycles, A2 1 mg/kg twice weekly i.v., ICE (ifosfamide 83.3, carboplatin 7.8, etoposide 0.5 mg/kg) three times weekly i.p.", "value": 70, "unit": "%"},
      {"measurement": "time until the group median tumor volume exceeded 500 mm^3", "setting": "third cycle after day 15, day 24 last day of study, same dosing as TGI", "value": 16, "unit": "days"}
    ]}
  ]
}
